Data published in the supplement of paper PMC10338343.
± gives the standard deviation. This is a selection; strong and weak results do not stand in their true shares.

Test system: MIWI (PIWIL1) piRISC loaded with piRNA #1 (30 nt)
Test: pre-steady-state target cleavage rate (min^-1); MIWI and MILI are mouse PIWI proteins and EfPiwi is from a freshwater sponge; tags in brackets are library labels; higher = faster piRNA-guided slicing of the target
Details: guide: piRNA #1 5'p-UGAGGUAGUAGGUUGUAUAGUAUCCAGAGG; auxiliary factor: 500 nM mouse GTSF1
In short: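 In Cleave-'n-Seq, a transcribed, DNA-blocked target RNA library (0.1 nM) was combined with 1 nM active affinity-purified piRISC bearing one synthetic guide, with or without 500 nM GTSF1 partner protein. Reactions ran in HEPES–potassium acetate buffer at 33 °C for 0–8 or 0–960 min. Uncleaved targets were sequenced and normalised to depth and to weakly complementary targets, three trials were pooled, and k3 was capped at 0.0001 min^-1. The pre-steady-state cleavage rate was obtained by fitting a burst-and-steady-state model.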

Sequence | pre-steady-state target cleavage rate
GGACUGGAUACUAUACUACCUACAACCUCA | 0.39 ± 0.057
GCUGUGGAUACUAUACAACCUACUAGCUCA | 0.0678 ± 0.022
GGAGACCAUACAAUACAACGUACUACCUCA | 0.159 ± 0.029
GGAGACCUAUGAUAUGUUCCUAUCUACCUCA | < 0.0001
GGAGACCUUACUAUAGAACCUACUUCCUCA | 0.12 ± 0.036
GGAGACCUAUCUAUACAACCUACUACCUACA | 0.629 ± 0.058
GGUCUGGAUUCUAUACAUCCUACUACCUCA | 1.5 ± 0.1
GGAGACGAUACUAUACAACCUAGUUCCUCA | 0.178 ± 0.043
GGAGACCUUACUAUUCUACCUACUACCUCA | 0.0666 ± 0.0083
GCUCUGGAUACUAUACAACCUAGUACGUCA | 0.166 ± 0.029
GGAGACGUAUCUAUACAACCUACUACCUCA | 1.32 ± 0.12
GGAGACCUAUGAUAUGUACCUAGUUCCUCA | < 0.0001
GGAGACCUUACUAUAGAACCUACUACCUCA | 0.815 ± 0.064
GGAGACGAUACUAUACAACCUUCUAGCUCA | 0.129 ± 0.026
GGAGACCUUACUAUACAACCUAUCUACCUCA | 0.101 ± 0.018
GGAGAGGAUACUAAACAUCCUACUACCUCA | 0.946 ± 0.044
GGAGAGGAUACUAUAGAACCUACUACCUGA | 0.107 ± 0.021
GGAGACCUUACUAAACUACCUACUACCUCA | 0.0421 ± 0.0095
GGACAGCAUACUAUACAACCUACUACCUCA | 1.55 ± 0.11
CCUCUGGAUUCUAUACAACCUACUACCACA | 0.876 ± 0.067

Sequence | pre-steady-state target cleavage rate
GGAGACCAUACUAUACAUCGUACUACCUCA | 0.2 ± 0.023
GGAGACCUAUGUAUACAACCUACGACCUCA | 0.0158 ± 0.0033
GGAGUGGAUAACUAUACAACCUACUACCUCA | 1.12 ± 0.081
GGAGACCUUACAAUACAACCUACUACCUCA | 0.602 ± 0.081
GGAGUGGAUACUAUACAACCUACUAGCCUCA | 0.621 ± 0.089
CCUCUGGAUACUAUACAACCUGACUACCUCA | 0.00646 ± 0.0029
GCUCUGGAUACUAUACUACCUUCUACCUCA | 0.268 ± 0.024
GGAGAGGUUACUAUAGAACCUACUACCUCA | 1.04 ± 0.074
GGAGACCUAACUAAACAACCUAGUACCUCA | 0.0545 ± 0.017
GGAGACCUAUCUAUACAACCUACUGACCUCA | 0.378 ± 0.03
GCACUGGAUAGUAUACAACCUACUACCUCA | 0.771 ± 0.058
CCUCUGGAUACUAUUCAACCUACUUCCUCA | 0.659 ± 0.051
GGAGAGGCAUACUAUACAACCUACUACCUCA | 1.07 ± 0.052
GGAGACGAUACGAUACAACCUACUACCUCA | 1.44 ± 0.084
GGAGACCAUACAAUACAAGCUACUACCUCA | 0.459 ± 0.048
GGAGAGGAUACUACUACAACCUACUACCUCA | 1.22 ± 0.074
CCUCAGGAUAGUAUACAACCUACUACCUCA | 0.142 ± 0.02
GGAGACGAAACUAUACAACGUACUACCUCA | 0.415 ± 0.03
GGAGACCUUACUAUACAACCUACUACCCA | 0.354 ± 0.038
GGACUGGAUACUAUACAUCCUUCUACCUCA | 0.272 ± 0.025
